From publication PMC4336329 (PLoS ONE, 2015)
Out of some 310,000 compounds screened, about 14,000 (4.5%) showed an effect of 50% or more. Effects have a minus sign here. This is one part of the list.

The molecules below were run against human ether-à-go-go-related gene (hERG) potassium channel (human, UniProt Q12809) (assay: primary screen, population patch clamp on CHO cells stably expressing hERG).
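Note: peak tail current of the secondary pulse compared with the same well before compound.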

Sequence of human ether-à-go-go-related gene (hERG) potassium channel (Q12809 whole entry, looked up): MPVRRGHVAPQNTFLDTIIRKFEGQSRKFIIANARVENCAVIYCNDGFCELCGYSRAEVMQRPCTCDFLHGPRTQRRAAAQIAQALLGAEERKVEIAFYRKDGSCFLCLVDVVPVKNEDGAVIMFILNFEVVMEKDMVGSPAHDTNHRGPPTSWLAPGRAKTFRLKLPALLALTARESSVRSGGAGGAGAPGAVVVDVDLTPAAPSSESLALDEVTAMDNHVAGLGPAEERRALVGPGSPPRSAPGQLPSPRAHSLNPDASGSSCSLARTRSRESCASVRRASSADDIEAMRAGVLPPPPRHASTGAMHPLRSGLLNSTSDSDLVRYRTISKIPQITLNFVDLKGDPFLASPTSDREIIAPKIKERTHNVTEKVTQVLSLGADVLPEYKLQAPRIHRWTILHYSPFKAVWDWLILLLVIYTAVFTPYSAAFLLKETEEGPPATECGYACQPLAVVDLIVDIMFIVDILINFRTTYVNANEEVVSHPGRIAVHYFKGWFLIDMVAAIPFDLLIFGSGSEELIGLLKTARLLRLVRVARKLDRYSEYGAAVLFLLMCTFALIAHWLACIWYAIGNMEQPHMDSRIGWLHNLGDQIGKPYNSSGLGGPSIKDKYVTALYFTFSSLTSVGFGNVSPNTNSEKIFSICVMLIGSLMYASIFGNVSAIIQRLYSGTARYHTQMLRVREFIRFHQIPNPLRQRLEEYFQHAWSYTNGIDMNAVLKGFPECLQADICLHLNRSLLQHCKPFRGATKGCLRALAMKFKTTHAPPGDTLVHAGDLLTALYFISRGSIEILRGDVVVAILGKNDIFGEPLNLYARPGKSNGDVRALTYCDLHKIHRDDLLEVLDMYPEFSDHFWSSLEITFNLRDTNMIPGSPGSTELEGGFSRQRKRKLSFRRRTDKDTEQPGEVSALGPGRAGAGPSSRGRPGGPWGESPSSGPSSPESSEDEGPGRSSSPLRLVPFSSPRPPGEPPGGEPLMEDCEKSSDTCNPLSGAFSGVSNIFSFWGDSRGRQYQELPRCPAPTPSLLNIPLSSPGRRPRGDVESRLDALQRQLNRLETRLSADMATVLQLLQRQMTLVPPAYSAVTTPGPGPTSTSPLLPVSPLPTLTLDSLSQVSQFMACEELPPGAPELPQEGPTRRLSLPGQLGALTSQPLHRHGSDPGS

Row | SMILES | hERG current change (%, negative = inhibition) at 10uM [%]
1 | CCC(=O)N1CCN(c2ccccc2NC(=O)c2ccc([N+](=O)[O-])o2)CC1 | -69
2 | CC(C)c1nc2sc3c(c2c(=O)o1)CCCC3 | 5.59
3 | COc1ccc(CN2C(=O)CS/C2=N/N=C/c2ccccc2)cc1 | 14
4 | Cl.O=C(CN1CCN(C2CCCCC2)CC1)Nc1ccccc1-c1ccccc1 | -70.1
5 | O=C(COC(=O)C1CC1)Nc1ccc2[nH]c(=O)[nH]c2c1 | 14
6 | CCn1c(N)c(C(=O)NCC2CCCO2)sc1=S (centres unmarked) | 11.8
7 | COC(=O)CCC(=O)Nc1ccccc1C(=O)Nc1ccccc1 | 9.16
8 | CCOC(=O)c1cccc(NC(=O)CCCn2c(=O)c3cccn3c3cccnc32)c1 | 6.83
9 | COCC(=O)Nc1nnc(-c2cccs2)s1 | 9.33
10 | CCN1CCN(CC#CCOc2ccccc2OC)CC1.O=C(O)C(=O)O | -38.5
11 | Nc1cc(-c2nc3ncccc3o2)ccc1Cl | -1.78
12 | Cc1cc2c(cc1S(=O)(=O)CCC(=O)N1CC(C)CC(C)C1)OCC(=O)N2 (centres unmarked) | -29.4
13 | CSCc1cccc(C(=O)OC(C)C(=O)Nc2c(C)n(C)n(-c3ccccc3)c2=O)c1 (centres unmarked) | -8
14 | O=C(CNS(=O)(=O)c1ccccc1)OCC(=O)c1c[nH]c2ccccc12 | -2.37
15 | COc1ccccc1C(=O)Nc1ccc(S(=O)(=O)Nc2cc(C)on2)cc1 | 4.07
16 | C/C(CC(=O)Nc1cc(Cl)ccc1C)=N\NC(=O)C(=O)N1CCCC1 | 16.4
17 | Cc1ccc(NC(=O)CSCC(=O)N(C)CC(=O)Nc2cccc3ccccc23)cc1 | -19
18 | COc1ccc(-c2cc3ccc(O)cc3oc2=O)cc1OC | 12.6
19 | COc1cccc(OCC(O)CNC(C)c2ccccc2)c1.Cl (centres unmarked) | 2.14

Row | SMILES | hERG current change (%, negative = inhibition) at 10uM [%]
20 | CCN(Cc1ccc(OC)c(F)c1)C(C)C(=O)Nc1ccc(S(=O)(=O)N2CCCC2)cc1 (centres unmarked) | -8.74
21 | c1cc2nnnn2nc1N1CCCCCC1 | -29.9
22 | C#CC[N+]1(CC#Cc2ccc(C#CC[N+]3(CC#C)CCOCC3)cc2)CCOCC1.[Br-] | 3.46
23 | CC(C)C(=O)Nc1ccc2oc(-c3cc(F)c(F)cc3Cl)nc2c1 | -11.5
24 | NC(=O)SC/C(=N\S(=O)(=O)c1ccccc1)Nc1ccccc1 | 8.73
25 | Cc1ccc(SCC(=O)NCCCc2ccccc2)cc1 | 8.1
26 | CCCOc1ccc(C(=O)Nc2ccc(S(=O)(=O)Nc3cc(C)nc(C)n3)cc2)cc1 | 8.97
27 | C#CCOCCOCCOCCNc1nc(N2CCN(C(=O)[C@H](CCCCN)n3cc([C@@H](N)C(C)CC)nn3)CC2)nc(N2CCN(C(=O)[C@H](Cc3cc4ccccc4[nH]3)n3cc([C@@H](N)CC(C)C)nn3)CC2)n1.Cl (some centres unmarked) | 7.05
28 | COc1cc(C=O)ccc1Oc1nnnn1-c1ccc(C(N)=O)cc1 | -7.51
29 | Cc1ccc(NC(=O)c2cnn(-c3ccccc3)c2NC(=O)c2ccco2)cc1C | 0.985
30 | CCOc1ccc(Cn2c3ccc(OC)cc3c3nc4ccccc4nc32)cc1OC | 10.8
31 | COc1ccccc1CNC(=O)C1CCN(S(=O)(=O)c2ccc3c(c2)CC(C)N3C(C)=O)CC1 (centres unmarked) | 13
32 | COc1cccc(NC(=O)N2CCN(c3cccc(C)c3C)CC2)c1 | -17.5
33 | COc1ccccc1OCC(=O)NNC(=O)Nc1ccccc1 | 18.2
34 | Cn1ncc2c(Nc3ccc(O)cc3)nc(Cl)nc21 | 5.53
35 | CC1CCC(NC(=O)CN2C(=O)c3cccnc3Oc3ccc(Cl)cc32)CC1 (centres unmarked) | -6.57
36 | O=C(COc1ccc2c3c(c(=O)oc2c1)CCCC3)NCC(O)c1ccccc1 (centres unmarked) | -2.73
37 | CN(C)c1ccc(NS(=O)(=O)c2ccc(-c3csnn3)cc2)cc1 | 13.1
38 | COc1cccc(C(=O)N2CCCC(c3nc(-c4cccs4)no3)C2)c1 (centres unmarked) | -12.9

Row | SMILES | hERG current change (%, negative = inhibition) at 10uM [%]
39 | CC(=O)Nc1cccc(NC(=O)c2ccc3c(c2)CCN3S(=O)(=O)c2ccccc2)c1 | 18.4
40 | CC(=O)CC(C)=NCCN=C(C)CC(C)=O | -4.29
41 | CC(C)Oc1cc(-n2c(=S)[nH]c3ccccc3c2=O)c(Cl)cc1Cl | 5.31
42 | O=C1c2ccccc2C(=O)N1CCCc1c[nH]c2ccc(Cl)cc12 | -19.3
43 | CCCCCn1c(=O)c(C(=O)NCc2ccccn2)c(O)c2ccccc21 | -5.21
44 | Cc1c(Nc2ncnc3c2cnn3-c2ccccc2)c(=O)n(-c2ccccc2)n1C | 6.92
45 | CCCCOC(C)n1cc(F)c(=O)[nH]c1=O (centres unmarked) | 18.8
46 | C(=N\n1cnnc1)/c1ccc(-c2ccccc2)cc1 | -13.1
47 | O=[N+]([O-])c1cc(CN2CCCC2)c2cccnc2c1O | 0.42
48 | COc1cccc(NC(=O)CNC(=O)c2cccs2)c1 | 5.78
49 | Clc1ccc(-c2noc(/C=C/c3ccccc3)n2)cc1 | 18.2
50 | CC(/C=C/c1ccccc1)=N\NC(=O)CCc1ccccc1 | -0.539
51 | Cc1ccccc1C(=O)NNC(=O)c1cccc([N+](=O)[O-])c1 | -9.18
52 | Cc1cccc(N2CCN(C(=O)CC(NC(=O)c3ccccc3)c3ccccc3)CC2C)c1 (centres unmarked) | -47.1
53 | COc1cc(/C=N/NC(=O)Cc2cccs2)c([N+](=O)[O-])cc1OC | -3.76
54 | Cc1nn(S(=O)(=O)N(C)C)c(C)c1CN1C(=O)c2ccccc2C1=O | -14.3
55 | CC(C)=CCCC(C)CN(C)CCc1ccccn1 (centres unmarked) | -65.4
56 | COc1ccc(OCCCC(=O)OC(C)C(=O)Nc2ccc(C)cc2)cc1 (centres unmarked) | -26.6
